# Assay results taken from the supplement of paper PMC8728848.
# The list shows a part of the results.
# Legend:
# Test in all cases: glycan array binding signal (z-score within array); higher = stronger binding
# Settings in all cases: glycan notation: IUPAC condensed, linker removed
# [1] = target: Gal(b1-3)[Fuc(a1-4)]GlcNAc(b1-2)Man
# How it was run: (§1)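 Glycan array data came from 3228 arrays in the Consortium for Functional Glycomics database, and only arrays with an available protein sequence were kept. Glycan names were put into IUPAC-condensed notation, and columns mapping to the same glycan were averaged. The binding signal is a within-array Z-score, averaged across arrays of one protein sequence run at different concentrations or buffers and across linkers. A negative Z-score can be read as non-binding.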
# [2] = target: Gal(b1-3)[Fuc(a1-4)]GlcNAc(b1-2)Man(a1-3)[Gal(b1-3)[Fuc(a1-4)]GlcNAc(b1-2)Man(a1-6)]Man(b1-4)GlcNAc(b1-4)[Fuc(a1-6)]GlcNAc
# How it was run: as §1
# [3] = target: Gal(b1-3)[Fuc(a1-4)]GlcNAc(b1-3)Gal(b1-3)[Fuc(a1-4)]GlcNAc
# How it was run: as §1
# [4] = target: Gal(b1-3)[Fuc(a1-4)]GlcNAc(b1-3)Gal(b1-4)GlcNAc
# How it was run: as §1
# [5] = target: Gal(b1-3)[Fuc(a1-4)]GlcNAc(b1-3)Gal(b1-4)[Fuc(a1-3)]GlcNAc
# How it was run: as §1
# [6] = target: Gal(b1-3)[Fuc(a1-4)]GlcNAc(b1-6)GalNAc
# How it was run: as §1
# [7] = target: Gal(b1-3)[GlcNAc(b1-6)]GalNAc
# How it was run: as §1
# [8] = target: Gal(b1-3)[Neu5Ac(a2-6)]GalNAc
# How it was run: as §1
# [9] = target: Gal(b1-3)[Neu5Ac(a2-6)]GlcNAc(b1-4)Gal(b1-4)Glc
# How it was run: as §1
# [10] = target: Gal(b1-3)[Neu5Ac(a2-6)]GlcNAc(b1-6)Gal(b1-4)Glc
# How it was run: as §1
# [11] = target: Gal(b1-3)[Neu5Ac(b2-6)]GalNAc
# How it was run: as §1
# Gal(b1-4)Gal = target: Gal(b1-4)Gal
# How it was run: as §1
# [12] = target: Gal(b1-4)GalNAc(a1-3)[Fuc(a1-2)]Gal(b1-4)GlcNAc
# How it was run: as §1
# [13] = target: Gal(b1-4)GalNAc(b1-3)[Fuc(a1-2)]Gal(b1-4)GlcNAc
# How it was run: as §1
# Gal(b1-4)Glc = target: Gal(b1-4)Glc
# How it was run: as §1
# Gal(b1-4)Glc6S = target: Gal(b1-4)Glc6S
# How it was run: as §1
# Gal(b1-4)GlcNAc = target: Gal(b1-4)GlcNAc
# How it was run: as §1
# [14] = target: Gal(b1-4)GlcNAc(a1-6)Gal(b1-4)GlcNAc
# How it was run: as §1
# Gal(b1-4)GlcNAc(b1-2)Man = target: Gal(b1-4)GlcNAc(b1-2)Man
# How it was run: as §1
# [15] = target: Gal(b1-4)GlcNAc(b1-2)Man(a1-3)Man(b1-4)GlcNAc(b1-4)GlcNAc
# How it was run: as §1
# [16] = target: Gal(b1-4)GlcNAc(b1-2)Man(a1-3)[Gal(b1-4)GlcNAc(b1-2)Man(a1-6)]Man(b1-4)GlcNAc(b1-4)GlcNAc
# How it was run: as §1
# [17] = target: Gal(b1-4)GlcNAc(b1-2)Man(a1-3)[Gal(b1-4)GlcNAc(b1-2)Man(a1-6)]Man(b1-4)GlcNAc(b1-4)[Fuc(a1-6)]GlcNAc
# How it was run: as §1
# [18] = target: Gal(b1-4)GlcNAc(b1-2)Man(a1-3)[Gal(b1-4)GlcNAc(b1-2)Man(a1-6)][Gal(b1-4)GlcNAc(b1-4)]Man(b1-4)GlcNAc(b1-4)[Fuc(a1-6)]GlcNAc
# How it was run: as §1
# [19] = target: Gal(b1-4)GlcNAc(b1-2)Man(a1-3)[Gal(b1-4)GlcNAc(b1-2)Man(a1-6)][GlcNAc(b1-4)]Man(b1-4)GlcNAc(b1-4)[Fuc(a1-6)]GlcNAc
# How it was run: as §1
# [20] = target: Gal(b1-4)GlcNAc(b1-2)Man(a1-3)[Gal(b1-4)GlcNAc(b1-2)][GlcNAc(b1-4)]Man(b1-4)GlcNAc(b1-4)GlcNAc
# How it was run: as §1
# [21] = target: Gal(b1-4)GlcNAc(b1-2)Man(a1-3)[GlcNAc(b1-2)Man(a1-6)]Man(b1-4)GlcNAc(b1-4)GlcNAc
# How it was run: as §1
# [22] = target: Gal(b1-4)GlcNAc(b1-2)Man(a1-3)[GlcNAc(b1-4)][Gal(b1-4)GlcNAc(b1-2)Man(a1-6)]Man(b1-4)GlcNAc(b1-4)GlcNAc
# How it was run: as §1
# [23] = target: Gal(b1-4)GlcNAc(b1-2)Man(a1-3)[Man(a1-6)]Man(b1-4)GlcNAc(b1-4)GlcNAc
# How it was run: as §1
# [24] = target: Gal(b1-4)GlcNAc(b1-2)Man(a1-6)Man(b1-4)GlcNAc(b1-4)GlcNAc
# How it was run: as §1
# [25] = target: Gal(b1-4)GlcNAc(b1-2)Man(a1-6)[GlcNAc(b1-2)Man(a1-3)]Man(b1-4)GlcNAc(b1-4)GlcNAc
# How it was run: as §1
# [26] = target: Gal(b1-4)GlcNAc(b1-2)Man(a1-6)[Man(a1-3)]Man(b1-4)GlcNAc(b1-4)GlcNAc
# How it was run: as §1
# [27] = target: Gal(b1-4)GlcNAc(b1-2)[Gal(b1-4)GlcNAc(b1-4)]Man(a1-3)[Gal(b1-4)GlcNAc(b1-2)Man(a1-6)]Man(b1-4)GlcNAc(b1-4)GlcNAc
# How it was run: as §1
# [28] = target: Gal(b1-4)GlcNAc(b1-2)[Gal(b1-4)GlcNAc(b1-4)]Man(a1-3)[Gal(b1-4)GlcNAc(b1-2)[Gal(b1-4)GlcNAc(b1-6)]Man(a1-6)]Man(b1-4)GlcNAc(b1-4)GlcNAc
# How it was run: as §1
# [29] = target: Gal(b1-4)GlcNAc(b1-2)[Gal(b1-4)GlcNAc(b1-4)]Man(a1-3)[GlcNAc(b1-4)][Gal(b1-4)GlcNAc(b1-2)Man(a1-6)]Man(b1-4)GlcNAc(b1-4)GlcNAc
# How it was run: as §1
# [30] = target: Gal(b1-4)GlcNAc(b1-2)[Gal(b1-4)GlcNAc(b1-4)]Man(a1-3)[GlcNAc(b1-4)][Gal(b1-4)GlcNAc(b1-2)[Gal(b1-4)GlcNAc(b1-6)]Man(a1-6)]Man(b1-4)GlcNAc(b1-4)GlcNAc
# How it was run: as §1
# [31] = target: Gal(b1-4)GlcNAc(b1-2)[Gal(b1-4)GlcNAc(b1-4)]Man(a1-3)[GlcNAc(b1-4)][Gal(b1-4)GlcNAc(b1-2)[Gal(b1-4)GlcNAc(b1-6)]Man(a1-6)]Man(b1-4)GlcNAc(b1-4)[Fuc(a1-6)]GlcNAc
# How it was run: as §1
# [32] = target: Gal(b1-4)GlcNAc(b1-2)[Gal(b1-4)GlcNAc(b1-6)]Man(a1-6)[Gal(b1-4)GlcNAc(b1-2)Man(a1-3)]Man(b1-4)GlcNAc(b1-4)GlcNAc
# How it was run: as §1
binder,measurement,setting,value
"Siglec-7-SA-PE-180 (Homo sapiens), Q9Y286 (protein) MLLLLLLPLLWGRERVEGQKSNRKDYSLTMQSSVTVQEGMCVHVRCSFSYPVDSQTDSDPVHGYWFRAGNDISWKAPVATNNPAWAVQEETRDRFHLLGDPQTKNCTLSIRDARMSDAGRYFFRMEKGNIKWNYKYDQLSVNVTALTHRPNILIPGTLESGCFQNLTCSVPWACEQGTPPMISWMGTSVSPLHPSTTRSSVLTLIPQPQHHGTSLTCQVTLPGAGVTTNRTIQLNVSYPPQNLTVTVFQGEGTASTALGNSSSLSVLEGQSLRLVCAVDSNPPARLSWTWRSLTLYPSQPSNPLVLELQVHLGDEGEFTCRAQNSLGSQHVSLNLSLQQEYTGKMRPVSGVLLGAVGGAGATALVFLSFCVIFIVVRSCRKKSARPAADVGDIGMKDANTIRGSASQGNLTESWADDNPRHHGLAAHSSGEEREIQYAPLSFHKGEPQDLSGQEATNNEYSEIKIPK",glycan array binding signal (z-score),[1],0.158
same,glycan array binding signal (z-score),[2],-0.143
same,glycan array binding signal (z-score),[3],-0.372
same,glycan array binding signal (z-score),[4],-0.196
same,glycan array binding signal (z-score),[5],-0.14
same,glycan array binding signal (z-score),[6],-0.078
same,glycan array binding signal (z-score),[7],-0.225
same,glycan array binding signal (z-score),[8],0.453
same,glycan array binding signal (z-score),[9],-0.535
same,glycan array binding signal (z-score),[10],0.567
same,glycan array binding signal (z-score),[11],-0.277
same,glycan array binding signal (z-score),Gal(b1-4)Gal,-0.091
same,glycan array binding signal (z-score),[12],-0.318
same,glycan array binding signal (z-score),[13],-0.418
same,glycan array binding signal (z-score),Gal(b1-4)Glc,-0.184
same,glycan array binding signal (z-score),Gal(b1-4)Glc6S,0.009
same,glycan array binding signal (z-score),Gal(b1-4)GlcNAc,-0.116
same,glycan array binding signal (z-score),[14],-0.267
same,glycan array binding signal (z-score),Gal(b1-4)GlcNAc(b1-2)Man,0.353
same,glycan array binding signal (z-score),[15],-0.128
same,glycan array binding signal (z-score),[16],-0.065
same,glycan array binding signal (z-score),[17],-0.374
same,glycan array binding signal (z-score),[18],-0.508
same,glycan array binding signal (z-score),[19],-0.264
same,glycan array binding signal (z-score),[20],-0.228
same,glycan array binding signal (z-score),[21],-0.435
same,glycan array binding signal (z-score),[22],-0.065
same,glycan array binding signal (z-score),[23],0.048
same,glycan array binding signal (z-score),[24],-0.333
same,glycan array binding signal (z-score),[25],-0.046
same,glycan array binding signal (z-score),[26],-0.239
same,glycan array binding signal (z-score),[27],-0.13
same,glycan array binding signal (z-score),[28],-0.443
same,glycan array binding signal (z-score),[29],-0.381
same,glycan array binding signal (z-score),[30],-0.496
same,glycan array binding signal (z-score),[31],-0.261
same,glycan array binding signal (z-score),[32],-0.427
